SMILES strings stand for the structures.

The source of these data is PMC5515971, “Utility of spherical human liver microtissues for prediction of clinical drug-induced liver injury” (Archives of Toxicology, 2017).

Data set [1] relates to 3D human liver microtissues (hLiMT). Kind of data set: alpha-GST release into hLiMT supernatant (ELISA). The data set is classed as cell-based. Particulars: 336 h, 14 days, release into medium, read-out: IC50 (α-GST assay). Here is the method:
Supernatants from single hLiMT (in triplicates) were analysed for α-GST content using EKF’s α-GST ELISA assay. Briefly, 50 μL of the thawed cell-culture supernatants from single microtissues was transferred into a new v-bottom plate and diluted with 60 μl sample diluent buffer. From this dilution, 100 μL were transferred to the microassay strips. The ELISA was otherwise performed according to the manufacturer’s instructions.

The test system is the same in data set [2]. The data set is described as follows: Cytotoxicity (cellular ATP) in 3D human liver microtissues, 5-6 days treatment.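 Further: Hanging-drop spheroids, seven-point dilution series, re-dosed on day 3, CellTiter-Glo 2.0 luminescence, normalized to 0.5 or 1% DMSO vehicle controls on the same plate.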 The data set is classed as cell-based. Particulars: ATP content, read-out: IC50 SHORT.
Data set [3] has the same test system. The data set is described as follows: Cytotoxicity (cellular ATP, CellTiter-Glo 2.0) in 3D human liver microtissues, 14 day repeat-dose treatment. Particulars: for IC50: Homo sapiens, Hepatocyte, 336 h, read-out: Geomean IC50 [µM]. On the technique in general: Cellular ATP, detected with luciferase, serves as a proxy for viable cell number.
Data set [4] deals with primary human hepatocytes (PHH). Kind of data set: Cytotoxicity (cellular ATP, CellTiter-Glo) in 2D plated primary human hepatocytes, 48 h treatment.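 On all read-outs here: 384-well plates, luminescence read-out, normalized to vehicle wells with 1% DMSO.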 Particulars: for IC50: Hepatocyte, 2D primary human hepatocytes (lot IZT), 48 h treatment, total cellular ATP content, read-out: Geomean IC50. The data set is classed as cell-based.

A word on the IC50: it is the concentration at which inhibition is half-maximal. With `CCCCc1oc2ccccc2c1C(=O)c1cc(I)c(OCCN(CC)CC)c(I)c1` [Amiodarone], the IC50 in data set [1] stood at 45.7 µM; in data set [2], 65.9 µM.
Turning to `CN1[C@@H]2CC[C@H]1C[C@@H](OC(c1ccccc1)c1ccccc1)C2` [Benztropine], the IC50 in data set [3] is approximately 13.8 µM; in data set [4], 27.8 µM. The “classification at 100 μM IC50 threshold” value in data set [3] (hLiMT 14 days) and in data set [4] (PHH 48 h) was “false positives” each time.
With `CN(C)CCCN1c2ccccc2CCc2ccc(Cl)cc21` [Clomipramine], the results for the IC50 in data set [3] and in data set [4] were 11.3 µM and 25.3 µM, respectively.
In the same order, the values of `CNCCC(Oc1ccc(C(F)(F)F)cc1)c1ccccc1` (stereo not shown) [Fluoxetine] are 11.3 µM and 16.5 µM.
In the same order, the values of `Cc1ccccc1C(OCCN(C)C)c1ccccc1` (stereo not shown) [Orphenadrine] are more than 100 µM and 80.5 µM.
In the case of `CCN(CC)CC#CCOC(=O)C(O)(c1ccccc1)C1CCCCC1` (stereo not shown) [Oxybutynin], the IC50 in data set [3] and in data set [4] was more than 10 µM each time.
On to `CC/C(=C(\c1ccccc1)c1ccc(OCCN(C)C)cc1)c1ccccc1` [Tamoxifen], for which the figures for the IC50 in data set [3] and in data set [2] were 2.5 µM and 3.6 µM, respectively.
